Measured values reported in PubChem BioAssay AID720542 (National Center for Advancing Translational Sciences (NCATS), 2013).
Out of some 360,000 compounds screened, about 740 (0.21%) were called active. Inconclusive results, whose numbers are uncertain, are shown with a selection of clear calls. Calls follow the shape of the dose curve; as a rule, active = well fitted inhibition curve with a large enough effect; inconclusive = small, poorly fitted or top-dose-only effect; inactive = no such curve, though single readings can be large or run the other way. No potency is given beside an inconclusive call; the fits are too rough.

System: Plasmodium falciparum AMA1 (3D7) - RON2 peptide interaction
Test: qHTS for Inhibitors of AMA1-RON; Towards Development of Antimalarial Drug Lead: Primary Screen; also: nearly all actives have a fitted effect of over 45% in size;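 as to activity change, negative = inhibition: 0% = vehicle wells and -100% = peptide control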
Conditions: AlphaScreen AMA1-biotinylated RON2 peptide binding; activity change, negative = inhibition: at 58.2 µM (top of the series) unless noted
Outline: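 AMA1 (3D7) with his tag at 25 nM final met compounds first, then biotinylated RON2 peptide at 25 nM; detection used donor plus acceptor beads, 10 µg/mL apiece, read by AlphaScreen after 30 min at room temperature.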
Potency is read from the fitted curve at half-maximal effect; tags tell the direction and shape of the fitted curve.

Row | Structure (SMILES) | Potency | activity change, negative = inhibition
1 | COc1ccccc1NCC(O)COc1ccc(C(C)(C)C)cc1 (stereo unspecified) | inconclusive [inhibitor, partial curve] | 
2 | N#C/C(C(N)=O)=c1/ccc2c(c1)N1C3=C(CCCC3)CC3CCCCC31N=2 (stereo unspecified) | inconclusive [inhibitor, partial curve, poor fit] | 
3 | Cc1cccc(N=C2c3cc([N+](=O)[O-])ccc3-c3c2cc([N+](=O)[O-])cc3[N+](=O)[O-])c1 | inconclusive [inhibitor, partial curve] | 
4 | CC(=O)CCC(=O)N1CCCC(CNC(=O)c2ccc(-c3ccccc3)cc2)C1 (stereo unspecified) | inactive | 
5 | COc1ccc(N2CCN(C(=O)c3cc(-c4cc(OC)ccc4OC)nc4ccccc34)CC2)cc1 | active: 5.01 µM | 
6 | CCOc1cc(C(=S)N2CCCC2)ccc1OCc1ccccc1 | inconclusive [inhibitor, full curve] | 
7 | Oc1c(N=Nc2nn[nH]n2)ccc2ccccc12 | inconclusive [inhibitor, single point] | 
8 | CCOC(=O)/C(C#N)=C/c1c(N2CCN(Cc3ccc4c(c3)OCO4)CC2)nc2c(C)cccn2c1=O | inconclusive [inhibitor, partial curve] | 
9 | Cc1cccc(-c2noc(-c3ccc(Cl)cc3[N+](=O)[O-])n2)c1 | inconclusive [inhibitor, partial curve] | 
10 | Cc1cc(/C=C2/NC(=O)NC2=O)c(C)n1C | inactive | 
11 | S=C(NCc1ccncc1)Nc1ccc(Cl)cc1 | inactive | 
12 | CC1(C(=O)NS(=O)(=O)c2ccccc2Cl)CCN1C(=O)CC1CCCC1 (stereo unspecified) | inactive | 
13 | Cc1ccc(CN(C)C(=O)COc2ccc(S(=O)(=O)N3CCCC3)cc2[N+](=O)[O-])c(C)c1 | inactive | 
14 | Cc1cccc(N2CCN(S(=O)(=O)c3cccc4nonc34)CC2)c1C | inconclusive [inhibitor, single point] | 
15 | O=C(c1ccccc1)c1ccc(O)c(O)c1O | inconclusive [inhibitor, partial curve] | 
16 | COc1ccc(CCCN2CCC(CN3C(=S)NC[C@@H]3Cc3ccccc3)CC2)cc1OC | inactive | 
17 | C=CCSc1nnc(-c2cnn(-c3ccccc3)c2-n2cccc2)n1C | inconclusive [inhibitor, full curve, poor fit] | 
18 | Fc1ccccc1/C=N/N1CCN(Cc2ccccc2Cl)CC1 | inconclusive [inhibitor, full curve] | 
19 | OCC1CCCCN1CC(O)COC(c1ccc(F)cc1)c1ccc(F)cc1 (stereo unspecified) | inactive | 
20 | Cc1cccc(NC2=C/C(=N/S(=O)(=O)c3cccs3)c3ccccc3C2=O)c1 | inconclusive [inhibitor, full curve] | 
21 | Nc1ccc(-c2ncc(-c3ccccc3)o2)cc1 | inconclusive [inhibitor, partial curve] | 
22 | O=[N+]([O-])c1nn(-c2ccc3c(c2)OCCO3)n(O)c1=Nc1ccccc1 | inconclusive [inhibitor, partial curve] | 

Row | Structure (SMILES) | Potency | activity change, negative = inhibition
23 | COC(=O)c1sc(N2C(=O)C(O)=C(C(=O)c3ccc(C)o3)C2c2ccc([N+](=O)[O-])cc2)nc1C (stereo unspecified) | inactive | 
24 | CCN(CC)c1ccc(NC(=O)Nc2ccccc2)cc1 | inconclusive [inhibitor, single point] | 
25 | CC(=O)NC(CCC(=O)O)C(=O)O (stereo unspecified) | inactive | 
26 | CCOC(=O)C1=C(C)N(c2ccc(C)c(C)c2)C(=O)/C1=C\c1ccco1 | inconclusive [inhibitor, single point] | 
27 | COc1ccc(OC(C)C(=O)Nc2ccc([N+](=O)[O-])cc2)cc1 (stereo unspecified) | inactive | 
28 | CCc1nc2ccc(C(=O)NCCOc3ccc(OC)cc3)cn2c1N(C)Cc1ccc(N(C)C)cc1 | inconclusive [inhibitor, single point] | 
29 | Cc1ccc(C(C(=O)NC(C)(C)C)N(Cc2cccnc2)C(=O)C(=O)NC2CCCCC2)o1 (stereo unspecified) | inconclusive [inhibitor, full curve, poor fit] | 
30 | CC1CN(CCCCOc2ccc(Cl)c3ccccc23)CC(C)O1 (stereo unspecified) | inconclusive [inhibitor, partial curve] | 
31 | CCCCCc1cc(=O)oc2c(C(CCN3CCN(c4ccccc4)CC3)c3ccc4c(c3)OCO4)c(OC)cc(OC)c12 (stereo unspecified) | inactive | 
32 | COc1cc(-c2nnc(SCc3cc(=O)oc4cc(O)c(O)cc34)o2)cc(OC)c1OC | inconclusive [inhibitor, full curve] | 
33 | COc1ccc(-c2sc3ccc(OC)cc3c2-c2ccc(OCCN3CCOCC3)cc2)cc1 | inconclusive [inhibitor, single point] | 
34 | CC(OC(=O)COc1ccc(Nc2ccccc2)cc1)C(=O)N(C)c1ccccc1 (stereo unspecified) | inconclusive [inhibitor, partial curve] | 
35 | COc1ccc(NC(=O)CCS(=O)(=O)c2ccc3c(c2)CCCN3C(C)=O)cc1Cl | inconclusive [inhibitor, partial curve] | 
36 | CCN(CC)S(=O)(=O)c1ccc(NC(=O)c2ccc(Sc3nncn3C)c([N+](=O)[O-])c2)cc1 |  | inactive: -8.87% [at 2.32 µM]
37 | O=[N+]([O-])c1ccc(N2CCN(Cc3ccc([N+](=O)[O-])o3)CC2)cc1 | inconclusive [inhibitor, single point] | 
38 | COc1cccc(-c2sc3ccccc3c2-c2ccc(OCCN3CCCCC3)cc2)c1 | inconclusive [inhibitor, partial curve] | 
39 | CN(C)Cc1ccc(F)cc1Sc1cc(Cl)ccc1Cl | inconclusive [inhibitor, partial curve] | 
40 | C=Cn1ccnc1P(=S)(c1ccn(C)c1)c1nccn1C=C | inactive | 
41 | Nc1cccc2cccc([N+](=O)[O-])c12 | inconclusive [inhibitor, single point] | 
42 | COc1ccc(-n2cnc3cc(NCc4ccco4)ccc32)cc1 | inconclusive [inhibitor, single point] | 
43 | Cc1ccc(C)c(Cn2c(C(=O)OC(C)C)cc3c2ccn3C)c1 | inconclusive [inhibitor, partial curve] | 
44 | N/C(CS(=O)(=O)c1ccccn1)=N\OC(=O)c1ccc(Cl)cc1 | inconclusive [inhibitor, full curve, poor fit] | 

Row | Structure (SMILES) | Potency | activity change, negative = inhibition
45 | COc1ccc(C=C2C(=O)NC(=S)NC2=O)cc1OC | inconclusive [inhibitor, single point] | 
46 | CCCn1c(SCC(=O)Nc2cccc(C(=O)OC)c2)nnc1-c1cccnc1 | inactive | 
47 | Cc1ccc(CN2CCN(/N=C/c3sccc3C)CC2)c(C)c1 | inconclusive [inhibitor, partial curve] | 
48 | C#CCOCCOCCOCCNc1nc(N2CCN(C(=O)CCCCCCCCCCNC(=O)[C@@H](CCC(=O)O)n3cc(CCCCCN)nn3)CC2)nc(N2CCN(C(=O)CCCCCCCCCCNC(=O)[C@H](CCCCN)n3cc(C[C@@H](C)CC)nn3)CC2)n1 | inconclusive [inhibitor, single point] | 
49 | COc1ccc(-c2csc(Nc3cccc(C)n3)n2)cc1OC | inconclusive [inhibitor, single point] | 
50 | COc1ccc(NC(C)C(=O)Nc2ccc(C(C)(C)C)cc2)cc1Cl (stereo unspecified) | inconclusive [inhibitor, single point] | 
51 | O=C(Nc1ccc2c(c1)OCCO2)C(CCc1ccccc1)N1CCN(C/C=C/c2ccccc2)CC1 (stereo unspecified) | inconclusive [inhibitor, partial curve] | 
52 | OCC1(Cc2cccc(Cl)c2)CCCN(Cc2cn[nH]c2C2CCCCC2)C1 (stereo unspecified) | inconclusive [inhibitor, single point] | 
53 | CCCCCCCn1c(=N)n(CC(O)c2ccco2)c2ccccc21 (stereo unspecified) | inactive | 
54 | CC(C)CC1C(=O)N(Cc2cn(CCC3OCCO3)nn2)CCS(=O)(=O)N1Cc1ccc(-c2cccc(N(C)C)c2)cc1 (stereo unspecified) | inconclusive [inhibitor, single point] | 
55 | CCOC(=O)C1CCN(Cc2ccc(O)c3ncccc23)CC1 | active: 9.47 µM | 
56 | CCN=c1scc(C)n1/N=C/c1ccc(O)c(O)c1O | inconclusive [inhibitor, partial curve] | 
57 | Cn1c(=O)c2nc(-c3ccccc3)oc2c2ccccc21 | inconclusive [inhibitor, partial curve] | 
58 | COc1ccc(C(OC(=O)c2ccco2)C(=O)NCC2CCCO2)cc1 (stereo unspecified) | inconclusive [inhibitor, partial curve, poor fit] | 
59 | Cc1cc(NC(=O)COc2ccc(C(C)(C)C)cc2)no1 | inconclusive [inhibitor, partial curve] | 
60 | Cc1cccc(OCC(=O)NC2CCCCCC2)c1C | inactive | 
61 | COc1ccc(Nc2oc(COc3ccc(OC)cc3)nc2C#N)cc1 | inconclusive [inhibitor, partial curve] | 
62 | CC(=O)N1CCCc2cc(S(=O)(=O)N3CCCC(C(=O)N4CCN(c5ccccc5)CC4)C3)ccc21 (stereo unspecified) | inactive | 
63 | N#C/C(=C\c1ccc2c(c1)OCCO2)C(=O)Nc1ccc(C(=O)O)cc1 | inactive | 
64 | COc1ccc(CNC(C)C2COc3ccccc3O2)c(OC)c1 (stereo unspecified) | inconclusive [inhibitor, partial curve, poor fit] | 
65 | O=C(N=Nc1c(O)[nH]c2ccc(Br)cc12)c1ccccc1-n1cccc1 | inconclusive [inhibitor, single point] | 
66 | CC(=O)N1CCN(C(=O)c2ccc3c(c2)OCO3)CC1 | inactive | 
